Data reported in PubChem BioAssay AID1963576 (National Center for Advancing Translational Sciences (NCATS), 2024).
In all, about 46,000 compounds went through this assay and about 60 (0.1%) were called active. Inconclusive results (about 3%) are left out. The call rests on the fitted dose curve; in most records, active means well fitted inhibition curve with a large enough effect; inconclusive means small, poorly fitted or top-dose-only effect; inactive means no such curve, though single readings can be large or run the other way. The list shows a part of the results.

assay: Primary qHTS assay for Inhibitors of ovarian cancer metastasis using an organotypic tumor microenvironment (TME) model.; further: nearly all actives have a fitted effect of over 65% in size;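 on activity change, negative = inhibition: plate controls were DMSO wells for no effect and tomatine positive control wells for full effect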; settings: SKOV3ip1-GFP adhesion/invasion on 3D omental model, fluorescence; series mostly up to 45.8 µM; activity change, negative = inhibition: at the top concentration
Method in brief: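 Primary human omental fibroblast/mesothelial 3D culture pre-formed 48 h. SKOV3ip1-GFP cells added with compounds (0.36-46 umol/L), incubated 2 h RT/16 h 37 C, fixed; GFP cells quantified at 488/509 nm.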

Structure (SMILES) | activity change, negative = inhibition | outcome
COc1ccc(C2c3c(n(C)c4ccccc34)C(=O)N2CC(=O)Nc2cccc(Cl)c2)cc1 (stereo not drawn) | inactive: -7.3% | –
COc1cccc(CNC(=O)c2cccc(-n3c(C)nc4cccnc43)c2)c1OC | inactive: 8.94% | –
COc1ccc(OC)c(S(=O)(=O)NCCS(=O)(=O)N2CCN(c3ccccc3)CC2)c1 | – | inactive
Cc1cc(=O)n(Cc2ccc(Cl)cc2)c2c1c(C)nn2-c1ccccc1 | inactive: 1.47% | –
O=C(Cn1c(=O)n(-c2ccccc2)c(=O)c2c3c(sc21)CCCC3)Nc1ccc(F)cc1F | inactive: -0.923% | –
Cc1ccc(C)c(NC(=O)C2CCCN(c3ncnc4onc(C)c34)C2)c1 (stereo not drawn) | inactive: -4.06% | –
N#Cc1nc(-c2ccc(COc3ccc(Cl)cc3)o2)oc1N1CCC(C(N)=O)CC1 | inactive: -3.07% | –
O=C(CSc1cn(CC(=O)N2CCCCC2)c2ccccc12)Nc1ccccc1 | inactive: -3.85% | –
COc1ccc(OC)c(C2=NS(=O)(=O)N(C)C(C(=O)Nc3ccc(F)cc3F)=C2)c1 | inactive: 2.76% | –
CC1CCN(c2nn3c(=O)c(C(=O)NC(C)C)cnc3s2)CC1 | inactive: 3.85% | –
Cc1nc(-c2ccccc2)sc1-c1ccc(SCC(=O)NCc2ccccc2Cl)nn1 | – | inactive
O=C(NCC(c1ccco1)S(=O)(=O)c1cccs1)c1ccc(F)c(F)c1 (stereo not drawn) | inactive: 6.38% | –
CCc1ccccc1NC(=O)N1CCCn2nc(C)cc21 | – | inactive
O=C(NCc1noc2ccccc12)N1CCN(c2ccccc2)CC1 | inactive: 1.47% | –
O=C(Cn1c(=O)n(Cc2ccccc2)c(=O)c2sc3ccccc3c21)Nc1ccccc1 | inactive: -6.92% | –
CCN1CCOC(=O)C1CC(=O)Nc1ccc(Br)cc1 (stereo not drawn) | inactive: -2.29% | –
Cc1ccc(Cl)cc1NC(=O)c1sc(-n2nc(C)c(Cc3ccc4c(c3)OCO4)c2C)nc1C | inactive: -4.86% | –
CCOc1ccc(-c2cc3nc(C4CCN(C(=O)OC(C)(C)C)CC4)c(C(=O)Nc4cc(OC)ccc4OC)cn3n2)cc1 | inactive: -3.41% | –
CCCOc1ccc(C2c3c(-c4c(C)cc(C)cc4O)n[nH]c3C(=O)N2CCO)cc1 (stereo not drawn) | – | inactive
Cc1nn(C)c2c1c(-c1ccccc1)cc(=O)n2CC(=O)NC(C)c1ccccc1 (stereo not drawn) | inactive: 19.7% | –
COc1ccc(-n2c(-c3ccco3)nc3c(cnn3-c3ccccc3Cl)c2=O)cc1 | inactive: 51.2% | –
Cc1ccc(Cl)cc1NC(=O)Nc1cccc(OCc2cc(=O)n3ccccc3n2)c1 | – | inactive
CCCCCn1c(CN2CCN(c3ccc(OC)cc3)CC2)nc2c1c(=O)[nH]c(=O)n2C | inactive: 15.4% | –
Cc1ccc(Nc2nnc(-c3ccc(C)c(S(=O)(=O)N4CCOCC4)c3)c3ccccc23)cc1 | inactive: -2.35% | –

Structure (SMILES) | activity change, negative = inhibition | outcome
Cc1cc(C)c2c(=O)cc(C(=O)Nc3sc4c(c3C(=O)NCC3CCCO3)CCCC4)oc2c1 (stereo not drawn) | inactive: -24.7% | –
CC(C)N(CCCNC(=O)Cn1ncc2c([nH]c3ccccc32)c1=O)Cc1ccccc1 | – | inactive
COCCNC(=O)c1ccc2nc(Cc3ccccc3)oc2c1 | inactive: 17.1% | –
Cc1cc(=O)n(Cc2ccccc2)c2c1c(C)nn2C | inactive: -6.25% | –
COc1ccc(C)cc1NC(=O)CC1NCCNC1=O (stereo not drawn) | inactive: 3.64% | –
CCOC(=O)c1ccc(NC(=O)CSc2nc3ccccc3c(=O)n2CCC(=O)NC2CCCCC2)cc1 | inactive: -3.14% | –
COc1ccc(-c2nc(CS(=O)(=O)CC(=O)NCCc3ccc(C)cc3)c(C)o2)cc1 | – | inactive
CC(=O)c1ccc(N2CCN(c3ccc4cc(S(=O)(=O)N5CCCCC5)ccc4n3)CC2)cc1 | inactive: 9.37% | –
CCC(=O)C1=C(c2ccc(OC)c(OC)c2)N(C(=O)CC)n2c(nnc2-c2ccc(C)cc2)S1 | inactive: 5.98% | –
CC(=O)c1cc(-c2ccccc2)n(CC(=O)Nc2ccc(C)c(C)c2)c1C | inactive: -6.25% | –
COc1ccc(OC)c(CNS(=O)(=O)c2ccc(-c3coc(C)n3)cc2)c1 | inactive: -1.79% | –
Cc1cc2nc(-c3ccc(NC(=O)c4ccccc4F)cc3)oc2cc1C | – | inactive
COc1ccccc1-c1noc(-c2ccc(NC3CCCC3)c([N+](=O)[O-])c2)n1 | inactive: 56.6% | –
COc1ccccc1-c1nc(SCC(=O)NCc2ccccc2)c2c(=O)n(C)c(=O)n(C)c2n1 | inactive: 0.328% | –
CCOc1ccc(CNC(=O)CS(=O)(=O)c2cccc3nsnc23)cc1 | inactive: -8.6% | –
Nc1c(C(=O)Nc2cccc(F)c2)c2ccccn2c1C(=O)c1ccccc1 | inactive: 0.159% | –
CCc1cnc2c(c1SCC(=O)NCc1ccc(F)cc1)c(=O)n(C)c(=O)n2C | inactive: 4.25% | –
COc1ccc(C2C=C(c3ccccc3)Nc3nc(NC(=O)/C=C/c4ccccc4Cl)nn32)cc1 (stereo not drawn) | inactive: -30.1% | –
Nc1ncc(S(=O)(=O)Nc2ccc(F)cc2F)cn1 | – | inactive
COc1ccc(CCNc2nc(SCc3ccc(Cl)cc3)nc3ccccc23)cc1OC | inactive: -1.8% | –
Cc1cccc(C(=O)Nc2ccc3nc(SCCOc4ccccc4)sc3c2)c1 | – | inactive
Cc1ccc(C)c(Cn2c(C(=O)O)c(CNCc3cccs3)c3ccccc32)c1 | inactive: -6.16% | –
COc1ccc(NC(=O)CN2C(=O)COc3ccc(S(=O)(=O)N4CCCCC4)cc32)cc1OC | inactive: 15.1% | –
CCCCC(=O)N1CCc2cc(OC)c(OC)cc2C1COc1ccc(OC)cc1 (stereo not drawn) | inactive: -0.239% | –
